# Laboratory results published in the supplement of paper PMC8728848.
# The list shows a part of the results.
# B1: mCC1-Hexahis-Precomplexed (Mus musculus), P31809 (protein)
# chain: MELASAHLHKGQVPWGGLLLTASLLASWSPATTAEVTIEAVPPQVAEDNNVLLLVHNLPLALGAFAWYKGNTTAIDKEIARFVPNSNMNFTGQAYSGREIIYSNGSLLFQMITMKDMGVYTLDMTDENYRRTQATVRFHVHPILLKPNITSNNSNPVEGDDSVSLTCDSYTDPDNINYLWSRNGESLSEGDRLKLSEGNRTLTLLNVTRNDTGPYVCETRNPVSVNRSDPFSLNIIYGPDTPIISPSDIYLHPGSNLNLSCHAASNPPAQYFWLINEKPHASSQELFIPNITTNNSGTYTCFVNNSVTGLSRTTVKNITVLEPVTQPFLQVTNTTVKELDSVTLTCLSNDIGANIQWLFNSQSLQLTERMTLSQNNSILRIDPIKREDAGEYQCEISNPVSVRRSNSIKLDIIFDPTQGGLSDGHHHHHH
# How the values were obtained:
# Test in all cases: glycan array binding signal (z-score within array); higher = stronger binding
# Settings in all cases: glycan notation: IUPAC condensed, linker removed
# [1] = target: Neu5Ac(a2-3)Gal(b1-4)GlcNAc(b1-3)Gal(b1-4)GlcNAc(b1-3)Gal(b1-4)GlcNAc
# Outline: (§1)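 Glycan array data came from 3228 arrays in the Consortium for Functional Glycomics database, and only arrays with an available protein sequence were kept. Glycan names were put into IUPAC-condensed notation, and columns mapping to the same glycan were averaged. The binding signal is a within-array Z-score, averaged across arrays of one protein sequence run at different concentrations or buffers and across linkers. A negative Z-score can be read as non-binding.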
# [2] = target: Neu5Ac(a2-3)Gal(b1-4)GlcNAc(b1-3)Gal(b1-4)GlcNAc(b1-3)Gal(b1-4)GlcNAc(b1-2)Man(a1-3)[Neu5Ac(a2-3)Gal(b1-4)GlcNAc(b1-3)Gal(b1-4)GlcNAc(b1-3)Gal(b1-4)GlcNAc(b1-2)Man(a1-6)]GalNAc
# Outline: as §1
# [3] = target: Neu5Ac(a2-3)Gal(b1-4)GlcNAc(b1-3)Gal(b1-4)GlcNAc(b1-3)GalNAc
# Outline: as §1
# [4] = target: Neu5Ac(a2-3)Gal(b1-4)GlcNAc(b1-3)Gal(b1-4)GlcNAc(b1-3)[Neu5Ac(a2-3)Gal(b1-4)GlcNAc(b1-3)Gal(b1-4)GlcNAc(b1-6)]GalNAc
# Outline: as §1
# [5] = target: Neu5Ac(a2-3)Gal(b1-4)GlcNAc(b1-3)Gal(b1-4)GlcNAc(b1-6)[Gal(b1-3)]GalNAc
# Outline: as §1
# [6] = target: Neu5Ac(a2-3)Gal(b1-4)GlcNAc(b1-3)Gal(b1-4)[Fuc(a1-3)]GlcNAc
# Outline: as §1
# [7] = target: Neu5Ac(a2-3)Gal(b1-4)GlcNAc(b1-3)GalNAc
# Outline: as §1
# [8] = target: Neu5Ac(a2-3)Gal(b1-4)GlcNAc(b1-3)[Neu5Ac(a2-3)Gal(b1-4)GlcNAc(b1-6)]GalNAc
# Outline: as §1
# [9] = target: Neu5Ac(a2-3)Gal(b1-4)GlcNAc(b1-6)GalNAc
# Outline: as §1
# [10] = target: Neu5Ac(a2-3)Gal(b1-4)GlcNAc(b1-6)[Gal(b1-3)]GalNAc
# Outline: as §1
# [11] = target: Neu5Ac(a2-3)Gal(b1-4)GlcNAc(b1-6)[Neu5Ac(a2-3)Gal(b1-3)]GalNAc
# Outline: as §1
# [12] = target: Neu5Ac(a2-3)Gal(b1-4)GlcNAc6S
# Outline: as §1
# [13] = target: Neu5Ac(a2-3)Gal(b1-4)[Fuc(a1-3)]GlcNAc
# Outline: as §1
# [14] = target: Neu5Ac(a2-3)Gal(b1-4)[Fuc(a1-3)]GlcNAc(b1-2)Man
# Outline: as §1
# [15] = target: Neu5Ac(a2-3)Gal(b1-4)[Fuc(a1-3)]GlcNAc(b1-3)Gal
# Outline: as §1
# [16] = target: Neu5Ac(a2-3)Gal(b1-4)[Fuc(a1-3)]GlcNAc(b1-3)Gal(b1-4)GlcNAc
# Outline: as §1
# [17] = target: Neu5Ac(a2-3)Gal(b1-4)[Fuc(a1-3)]GlcNAc(b1-3)Gal(b1-4)[Fuc(a1-3)]GlcNAc(b1-3)Gal(b1-4)[Fuc(a1-3)]GlcNAc
# Outline: as §1
# [18] = target: Neu5Ac(a2-3)Gal(b1-4)[Fuc(a1-3)]GlcNAc(b1-3)GalNAc
# Outline: as §1
# [19] = target: Neu5Ac(a2-3)Gal(b1-4)[Fuc(a1-3)]GlcNAc(b1-6)[Gal(b1-3)]GalNAc
# Outline: as §1
# [20] = target: Neu5Ac(a2-3)Gal(b1-4)[Fuc(a1-3)]GlcNAc(b1-6)[Neu5Ac(a2-3)Gal(b1-3)]GalNAc
# Outline: as §1
# [21] = target: Neu5Ac(a2-3)Gal(b1-4)[Fuc(a1-3)]GlcNAc6S
# Outline: as §1
# [22] = target: Neu5Ac(a2-3)Gal6S(b1-4)GlcNAc
# Outline: as §1
# [23] = target: Neu5Ac(a2-3)Gal6S(b1-4)[Fuc(a1-3)]GlcNAc
# Outline: as §1
# [24] = target: Neu5Ac(a2-3)GalNAc
# Outline: as §1
# [25] = target: Neu5Ac(a2-3)GalNAc(b1-4)GlcNAc
# Outline: as §1
# [26] = target: Neu5Ac(a2-3)[GalNAc(b1-4)]Gal(b1-4)Glc
# Outline: as §1
# [27] = target: Neu5Ac(a2-3)[GalNAc(b1-4)]Gal(b1-4)GlcNAc
# Outline: as §1
# [28] = target: Neu5Ac(a2-3)[GalNAc(b1-4)]Gal(b1-4)GlcNAc(b1-3)GalNAc
# Outline: as §1
# [29] = target: Neu5Ac(a2-3)[Neu5Ac(a2-6)]GalNAc
# Outline: as §1
# [30] = target: Neu5Ac(a2-6)Gal
# Outline: as §1
# [31] = target: Neu5Ac(a2-6)Gal(b1-3)GlcNAc(b1-3)[Gal(b1-4)GlcNAc(b1-6)]Gal(b1-4)Glc
# Outline: as §1
# [32] = target: Neu5Ac(a2-6)Gal(b1-4)Glc
# Outline: as §1
# [33] = target: Neu5Ac(a2-6)Gal(b1-4)GlcNAc
# Outline: as §1
# [34] = target: Neu5Ac(a2-6)Gal(b1-4)GlcNAc(b1-2)Man
# Outline: as §1
# [35] = target: Neu5Ac(a2-6)Gal(b1-4)GlcNAc(b1-2)Man(a1-3)Man(b1-4)GlcNAc(b1-4)GlcNAc
# Outline: as §1
# [36] = target: Neu5Ac(a2-6)Gal(b1-4)GlcNAc(b1-2)Man(a1-3)[Gal(b1-4)GlcNAc(b1-2)Man(a1-6)]Man(b1-4)GlcNAc(b1-4)GlcNAc
# Outline: as §1
# [37] = target: Neu5Ac(a2-6)Gal(b1-4)GlcNAc(b1-2)Man(a1-3)[GlcNAc(b1-2)Man(a1-6)]Man(b1-4)GlcNAc(b1-4)GlcNAc
# Outline: as §1
# [38] = target: Neu5Ac(a2-6)Gal(b1-4)GlcNAc(b1-2)Man(a1-3)[GlcNAc(b1-4)][Neu5Ac(a2-6)Gal(b1-4)GlcNAc(b1-2)Man(a1-6)]Man(b1-4)GlcNAc(b1-4)GlcNAc
# Outline: as §1
binder,measurement,setting,value
B1,glycan array binding signal (z-score),[1],-0.237
same,glycan array binding signal (z-score),[2],7.6
same,glycan array binding signal (z-score),[3],-0.119
same,glycan array binding signal (z-score),[4],1.78
same,glycan array binding signal (z-score),[5],3.21
same,glycan array binding signal (z-score),[6],-0.232
same,glycan array binding signal (z-score),[7],-0.117
same,glycan array binding signal (z-score),[8],-0.309
same,glycan array binding signal (z-score),[9],-0.237
same,glycan array binding signal (z-score),[10],-0.066
same,glycan array binding signal (z-score),[11],-0.183
same,glycan array binding signal (z-score),[12],-0.222
same,glycan array binding signal (z-score),[13],-0.172
same,glycan array binding signal (z-score),[14],-0.22
same,glycan array binding signal (z-score),[15],-0.197
same,glycan array binding signal (z-score),[16],-0.1
same,glycan array binding signal (z-score),[17],0.487
same,glycan array binding signal (z-score),[18],-0.087
same,glycan array binding signal (z-score),[19],0.076
same,glycan array binding signal (z-score),[20],-0.12
same,glycan array binding signal (z-score),[21],-0.277
same,glycan array binding signal (z-score),[22],-0.169
same,glycan array binding signal (z-score),[23],-0.282
same,glycan array binding signal (z-score),[24],-0.288
same,glycan array binding signal (z-score),[25],-0.292
same,glycan array binding signal (z-score),[26],-0.135
same,glycan array binding signal (z-score),[27],-0.089
same,glycan array binding signal (z-score),[28],3.55
same,glycan array binding signal (z-score),[29],-0.3
same,glycan array binding signal (z-score),[30],-0.145
same,glycan array binding signal (z-score),[31],-0.191
same,glycan array binding signal (z-score),[32],-0.195
same,glycan array binding signal (z-score),[33],-0.133
same,glycan array binding signal (z-score),[34],-0.158
same,glycan array binding signal (z-score),[35],-0.116
same,glycan array binding signal (z-score),[36],-0.215
same,glycan array binding signal (z-score),[37],-0.18
same,glycan array binding signal (z-score),[38],-0.101
